{"source": "paper PMC4336329", "about": "(PLoS ONE, 2015)", "note": "Out of some 310,000 compounds screened, about 14,000 (4.5%) showed an effect of 50% or more. Effects have a minus sign here. The list shows a part of the results.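 Further: peak tail current of the secondary pulse compared with the same well before compound.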", "data": [{"biological_target": "human ether-à-go-go-related gene (hERG) potassium channel (human, UniProt Q12809)", "sequence (Q12809 whole entry, looked up)": "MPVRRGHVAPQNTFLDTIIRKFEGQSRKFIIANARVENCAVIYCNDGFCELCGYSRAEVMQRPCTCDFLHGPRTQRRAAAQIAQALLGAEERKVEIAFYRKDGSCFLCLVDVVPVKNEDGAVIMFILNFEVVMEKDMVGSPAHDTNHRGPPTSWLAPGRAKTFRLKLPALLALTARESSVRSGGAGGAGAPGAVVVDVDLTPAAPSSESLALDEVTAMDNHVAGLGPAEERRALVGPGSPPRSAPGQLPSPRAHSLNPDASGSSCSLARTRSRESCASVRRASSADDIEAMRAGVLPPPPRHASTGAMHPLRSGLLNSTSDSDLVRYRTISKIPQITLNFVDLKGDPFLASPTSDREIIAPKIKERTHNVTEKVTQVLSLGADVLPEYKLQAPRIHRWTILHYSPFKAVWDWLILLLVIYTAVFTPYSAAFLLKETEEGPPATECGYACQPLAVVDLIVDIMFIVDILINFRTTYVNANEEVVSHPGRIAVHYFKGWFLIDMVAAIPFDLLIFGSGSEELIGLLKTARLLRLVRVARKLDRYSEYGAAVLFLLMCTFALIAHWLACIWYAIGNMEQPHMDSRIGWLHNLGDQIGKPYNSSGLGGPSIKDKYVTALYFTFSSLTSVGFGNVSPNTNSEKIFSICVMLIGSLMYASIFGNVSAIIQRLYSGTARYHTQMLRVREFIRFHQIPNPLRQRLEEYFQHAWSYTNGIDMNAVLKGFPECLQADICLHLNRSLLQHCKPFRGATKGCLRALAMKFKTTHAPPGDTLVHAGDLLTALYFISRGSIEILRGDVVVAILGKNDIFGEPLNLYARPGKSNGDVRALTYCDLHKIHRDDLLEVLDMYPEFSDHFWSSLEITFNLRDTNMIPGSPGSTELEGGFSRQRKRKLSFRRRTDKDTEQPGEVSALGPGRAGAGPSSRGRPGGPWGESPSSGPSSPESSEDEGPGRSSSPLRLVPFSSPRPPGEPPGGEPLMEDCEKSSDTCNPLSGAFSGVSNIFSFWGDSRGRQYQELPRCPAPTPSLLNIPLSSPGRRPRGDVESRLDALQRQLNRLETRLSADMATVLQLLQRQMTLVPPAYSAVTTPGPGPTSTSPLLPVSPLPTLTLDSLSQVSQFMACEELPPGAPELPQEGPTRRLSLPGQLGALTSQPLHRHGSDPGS", "experiment": "primary screen, population patch clamp on CHO cells stably expressing hERG", "units": {"hERG current change (%, negative = inhibition) at 10uM": "%"}, "values": [{"smiles": "O=C(NCCOc1ccccc1)C1CCC(=O)N(CCc2ccccn2)C1", "note": "(stereo not drawn)", "hERG current change (%, negative = inhibition) at 10uM": -11.9}, {"smiles": "O=C(CCc1ccccc1F)N1CCN(c2ccccc2)CC1", "hERG current change (%, negative = inhibition) at 10uM": 12}, {"smiles": "COc1cc([N+](=O)[O-])cc(/C=N/NC(=O)CSc2nnc(-c3ccccc3)n2C)c1O", "hERG current change (%, negative = inhibition) at 10uM": 28.8}, {"smiles": "OC(C#CCN1CCOCC1)(c1ccccc1)C1CCCCC1", "note": "(stereo not drawn)", "hERG current change (%, negative = inhibition) at 10uM": 13.6}, {"smiles": "Cc1c(Cl)cccc1NC(=O)NCc1ccccn1", "hERG current change (%, negative = inhibition) at 10uM": 15.1}, {"smiles": "COc1ccccc1-c1cc(C(=O)NCc2ccc(Cl)cc2)no1", "hERG current change (%, negative = inhibition) at 10uM": 3.64}, {"smiles": "Cn1c(SCC(=O)Nc2ccccc2F)nnc1-c1cccnc1", "hERG current change (%, negative = inhibition) at 10uM": -10.4}, {"smiles": "Cc1ccccc1CN1CCN(S(=O)(=O)c2ccc(Cl)s2)CC1", "hERG current change (%, negative = inhibition) at 10uM": 3.24}, {"smiles": "CC(C)c1ccc(NC(=O)C2CCCN(S(=O)(=O)c3ccc4c(c3)C(C)(C)C(=O)N4C)C2)cc1", "note": "(stereo not drawn)", "hERG current change (%, negative = inhibition) at 10uM": -1.88}, {"smiles": "COc1ccc(CNC(=O)COc2ccc(S(=O)(=O)N3CCOCC3)cc2C)cc1", "hERG current change (%, negative = inhibition) at 10uM": -18.4}, {"smiles": "C/C(=N/NC(=O)CNC(=O)/C=C/c1ccco1)c1ccc(Cl)cc1", "hERG current change (%, negative = inhibition) at 10uM": -4.77}, {"smiles": "CC1(C)C[C@@H]2C[C@@](C)(CN2C(=O)c2cc(COc3cccc(C(F)(F)F)c3)on2)C1", "hERG current change (%, negative = inhibition) at 10uM": 11.1}, {"smiles": "O=C(COc1ccccc1)OCC(=O)c1ccc(O)cc1O", "hERG current change (%, negative = inhibition) at 10uM": 17.5}, {"smiles": "CC1(C2CC2)NC(=O)N(CC(=O)N2CCN(S(=O)(=O)c3ccc(F)c(F)c3)CC2)C1=O", "note": "(stereo not drawn)", "hERG current change (%, negative = inhibition) at 10uM": 5.29}, {"smiles": "CCN(CC(=O)Nc1c(F)cccc1F)C(=O)Cn1c(=O)cnc2ccccc21", "hERG current change (%, negative = inhibition) at 10uM": 6.73}, {"smiles": "COc1cc(OC)c(NC(C)C(=O)NCc2ccccc2)cc1Cl", "note": "(stereo not drawn)", "hERG current change (%, negative = inhibition) at 10uM": 8.66}, {"smiles": "COc1cc2nc(COc3ccc(C#N)cc3)n(CC#N)c(=O)c2cc1OC", "hERG current change (%, negative = inhibition) at 10uM": -50.7}, {"smiles": "Cc1ccc(Nc2nc(Cl)nc(N(C)C#N)n2)cc1", "hERG current change (%, negative = inhibition) at 10uM": 6.93}, {"smiles": "COc1ccc(N2CCN(Cc3cc(=O)oc4ccc5ccccc5c34)CC2)cc1", "hERG current change (%, negative = inhibition) at 10uM": 3.87}, {"smiles": "Cc1ccc2c(C)c(C(=O)N3CCN(Cc4ccccn4)CC3)oc2c1C", "hERG current change (%, negative = inhibition) at 10uM": -23.1}, {"smiles": "CCN(CC)S(=O)(=O)c1ccc(OC)c(NC(=O)c2ccc3c(c2)OCO3)c1", "hERG current change (%, negative = inhibition) at 10uM": -3.23}, {"smiles": "Nc1ccc(C#Cc2ccc3c(=O)c4ccccc4oc3c2)cc1", "hERG current change (%, negative = inhibition) at 10uM": 21.8}, {"smiles": "Cc1cc(C(F)(F)F)c(C#N)c(SCC(=O)NC(C)(C)C)n1", "hERG current change (%, negative = inhibition) at 10uM": -3.9}, {"smiles": "CCCC(=O)Nc1ccc2oc(=O)ccc2c1", "hERG current change (%, negative = inhibition) at 10uM": 6.68}, {"smiles": "COc1ccc(CCNC(=O)Cc2ccc(Cl)cc2)cc1OC", "hERG current change (%, negative = inhibition) at 10uM": 24.3}, {"smiles": "Cc1cccc(OCCCC(=O)NCC(=O)Nc2cccc(C)c2C)c1", "hERG current change (%, negative = inhibition) at 10uM": 8.44}, {"smiles": "Cc1cc2ncn(C3CC(=O)N(C)C3=O)c2cc1C", "note": "(stereo not drawn)", "hERG current change (%, negative = inhibition) at 10uM": 7.19}, {"smiles": "O=C(NC(Cc1ccccc1)C(=O)O)c1ccc(S(=O)(=O)N2CCCCC2)cc1", "note": "(stereo not drawn)", "hERG current change (%, negative = inhibition) at 10uM": 23.7}, {"smiles": "Cc1c(NC(=S)N/N=C/c2ccc(N(C)C)cc2)c(=O)n(-c2ccccc2)n1C", "hERG current change (%, negative = inhibition) at 10uM": 19}, {"smiles": "CN(C(=O)Cc1c(C(=O)O)n(C)c2ccccc12)c1ccc(Cl)cc1", "hERG current change (%, negative = inhibition) at 10uM": 21.7}, {"smiles": "O=C(C[N+]12CCC(CC1)C(CO)C2)c1ccc(Br)cc1.[Br-]", "note": "(stereo not drawn)", "hERG current change (%, negative = inhibition) at 10uM": -3.89}, {"smiles": "CC(=O)Nc1ccc(OCC(=O)N2CCC(Cc3ccccc3)CC2)cc1", "hERG current change (%, negative = inhibition) at 10uM": -26.4}, {"smiles": "CCC1CN(C(=O)N2CCC(C(=O)NCc3cccc(F)c3)CC2)c2ccccc2O1", "note": "(stereo not drawn)", "hERG current change (%, negative = inhibition) at 10uM": -9.87}, {"smiles": "O=C(CCNC(=O)c1ccco1)NCCc1ccc(Cl)cc1", "hERG current change (%, negative = inhibition) at 10uM": -1.83}, {"smiles": "COc1ccc(NC(=O)N(CCCN2CCOCC2)Cc2cccnc2)c(OC)c1", "hERG current change (%, negative = inhibition) at 10uM": 5.99}, {"smiles": "O=C(CSc1nnc2n1CCCN2)c1ccc(Cl)cc1", "hERG current change (%, negative = inhibition) at 10uM": -10.3}, {"smiles": "CCOc1ccc2oc(C(=O)Nc3cc(C)ccn3)c(C)c2c1", "hERG current change (%, negative = inhibition) at 10uM": -0.308}, {"smiles": "COc1ccc(OC)c(S(=O)(=O)N2CCC(C(=O)NCc3ccccc3OC)CC2)c1", "hERG current change (%, negative = inhibition) at 10uM": -16.3}, {"smiles": "O=C(NC1CC1)c1cc2c(s1)-c1ccccc1OC2", "hERG current change (%, negative = inhibition) at 10uM": 12.6}, {"smiles": "COC(=O)C(CSCc1ccccc1)NC(=O)CSc1nc(N)cc(=O)[nH]1", "note": "(stereo not drawn)", "hERG current change (%, negative = inhibition) at 10uM": 33.5}, {"smiles": "Cc1cc(C)c2[nH]c(=O)c(C(c3nnnn3Cc3ccc4c(c3)OCO4)N3CCCCC3)cc2c1", "note": "(stereo not drawn)", "hERG current change (%, negative = inhibition) at 10uM": -4.85}, {"smiles": "O=C1Nc2ccccc2/C1=N/N=C/c1cccc(O)c1", "hERG current change (%, negative = inhibition) at 10uM": -7.68}, {"smiles": "Cc1cc2oc(=O)cc(COC(=O)c3n[nH]c4ccccc34)c2cc1C", "hERG current change (%, negative = inhibition) at 10uM": 1.28}, {"smiles": "O=C(COc1ccc(Br)cc1Cl)NC(=O)NC1CCCC1", "hERG current change (%, negative = inhibition) at 10uM": -9.03}, {"smiles": "Cc1ccc(C)c(OCC(=O)N/N=C\\c2cccn2C)c1", "hERG current change (%, negative = inhibition) at 10uM": 16.5}, {"smiles": "CCOc1cnn(-c2ccccc2)c(=O)c1Cl", "hERG current change (%, negative = inhibition) at 10uM": 18.4}, {"smiles": "CN(C)CCCNC(=O)C1(O)c2cc(Br)ccc2NC(=O)N1c1ccc(Cl)cc1", "note": "(stereo not drawn)", "hERG current change (%, negative = inhibition) at 10uM": 22.4}, {"smiles": "COc1ccc(Nc2ncnc3sccc23)c(OC)c1", "hERG current change (%, negative = inhibition) at 10uM": 18.1}, {"smiles": "CNC(=O)CSc1nnc(COc2ccc(Cl)cc2)n1CCOC", "hERG current change (%, negative = inhibition) at 10uM": -11.8}, {"smiles": "O=[N+]([O-])c1cccnc1N1CCC(c2cc(-c3ccc(Cl)cc3Cl)n[nH]2)CC1", "hERG current change (%, negative = inhibition) at 10uM": 0.131}, {"smiles": "CSc1sc(C(=O)N2CCCCC2)c(-c2cccs2)c1C#N", "hERG current change (%, negative = inhibition) at 10uM": -27.7}, {"smiles": "CCOC(=O)c1ccc(NC(=S)N2CCSC2c2ccc(Br)cc2)cc1", "note": "(stereo not drawn)", "hERG current change (%, negative = inhibition) at 10uM": 5.4}, {"smiles": "CC1CN(c2nc3c(c(=O)n(Cc4ccc(Cl)cc4)c(=O)n3C)n2C)CC(C)O1", "note": "(stereo not drawn)", "hERG current change (%, negative = inhibition) at 10uM": -31.2}, {"smiles": "Cc1cc(C)c(S(=O)(=O)O)c(C)n1", "hERG current change (%, negative = inhibition) at 10uM": 15.1}, {"smiles": "CCOc1ccc2[nH]cc(C(=O)O)c(=O)c2c1", "hERG current change (%, negative = inhibition) at 10uM": -1.35}, {"smiles": "COc1ccccc1N1CCN(C(c2ccccc2)c2nnnn2CCc2ccccc2)CC1.Cl", "note": "(stereo not drawn)", "hERG current change (%, negative = inhibition) at 10uM": 14.9}, {"smiles": "Cc1ccc(C)c(OCC(=O)Nc2ccc3c(c2)OCO3)c1C", "hERG current change (%, negative = inhibition) at 10uM": -5.11}]}]}
